# Experimental data published in PubChem BioAssay (NCI).
# “And” between values parts separate entries of the source, which are not always exact repeats. Equal entries are not always repeated.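 Compound exposure: 48 hours, 5 concentrations, 96-well plates. GI50: concentration for 50% inhibition of growth. TGI: concentration producing complete growth inhibition.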
# Tested on: NCI-H322M lung
# Assay: NCI-60 cell line screen, 48 h
Compound,TGI,GI50 [µM]
O=C1CSC(c2ccc(Cl)cc2)N1c1ccc(Oc2ccc(Cl)cc2)c(Cl)c1 (configuration not stated),28.7 µM,–
Cc1c(C(=O)C/C(=N/NC(=O)c2ccccc2O)C(=O)Nc2ccccc2C(C)C)[n+](=O)c2ccccc2n1[O-],> 100 µM,–
O=C(O)CCNCCCNCCC(=O)O,> 100 µM,–
OCCN(CCO)c1ncnc2c1ncn2Cc1ccc(CCl)cc1,35.5 µM,15.6
COc1cc(Br)cc2cc(-c3cn4ccsc4n3)c(=O)oc12,> 100 µM,–
Cn1cc(C2=C(c3c4n(c5ccccc35)CCCCC4)C(=O)NC2=O)c2ccccc21,> 25 µM,13.5
O=C1/C(=C\c2ccccc2)C(NC2CCCCC2)c2ccccc21 (configuration not stated),25.9 µM,–
COc1cc(/C=N\NC(=O)CN2CCN(c3cc4c(cc3F)c(=O)c(C(=O)N/N=C/c3cc(OC)c(OC)c(OC)c3)cn4C3CC3)CC2)cc(OC)c1OC,> 100 µM,0.45
COc1cc2nc3n(c(=O)c2cc1OC)-c1ccc([N+](=O)[O-])cc1C3=O,> 100 µM,–
C[C@]12CCC(O)CC1=CC[C@@H]1[C@@H]2CC[C@]2(C)C(=O)[C@H](n3ccnc3)C[C@@H]12 (some centres not stated),> 100 µM,–
O=C(CCN1CCCCC1)C(=Cc1ccccc1)C(=O)CCN1CCCCC1,> 100 µM,–
COc1cc2c(c(OC)c1OC)-c1ccc(NNC(N)=S)c(=O)cc1[C@@H](NC(C)=O)CC2,> 100 µM,1.11
Cc1ccc([N+](=O)[O-])cc1NC1=NCCO1,> 100 µM,–
Cc1ccc(CN2CCC(C(=O)Nc3ccc(-c4cc5ccccc5[nH]4)cc3)CC2)o1,> 100 µM,> 100
CN1CCCCC1CCN1c2ccccc2Sc2ccc(Cl)cc21 (configuration not stated),15.6 µM,4
COc1ccccc1N1C(=O)C2c3[nH]c4ccccc4c3C3CCC(C(C)(C)C)CC3C2C1=O (configuration not stated),> 100 µM,–
O=C(Nc1ccccc1)c1c(O)[nH]c(=S)[nH]c1=O,125 µM,–
c1ccc(N=c2sc3ccccc3nc2Nc2ccccc2)cc1,> 100 µM,–
CCOC(=O)c1cn2c(n1)sc1cccc(C)c12,> 100 µM,–
CCCCCCCCCCCCCC(=O)OC(/C=C/C(C)C)C(O)C(O)C(OC)C(=O)NC1CCCCN(C)C1=O (configuration not stated),13.9 µM and > 49 µM,> 49
